Where “and” joins values, the source holds several entries; their conditions need not be identical. Identical values can stand only once.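 Cultured in 96-well plates, cells were exposed to test compound for 48 hours across five concentrations. At the GI50, growth is halved. TGI marks complete inhibition of growth.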
These compounds were tested on NCI-H322M lung (assay: growth of human tumour cells (NCI), 48 h).

| SMILES | GI50 | TGI |
| --- | --- | --- |
| Cn1cc(C2=C(c3cn(CCCCN)c4ccccc34)C(=O)NC2=O)c2ccccc21 | > 25 µM | > 25 µM |
| C[N-]c1nnnn1C.[Au+].c1ccc([PH+](c2ccccc2)c2ccccc2)cc1 | 8.3 µM | 22.4 µM |
| CN(C)CCCOc1ccc(-c2ccc3ncc4c(c3c2)n(C2CCOCC2)c(=O)n4C)cn1 | 1.99 µM | 11.3 µM |
| COc1ccc2c(C)cc(N/N=C/c3ccc(OC)c4ccccc34)nc2c1 | – | 30.2 µM |
| OC(c1cc2ccccc2o1)c1cc2ccccc2s1 (stereo unspecified) | – | > 10 µM |
| Cc1ccsc1/C=N/Nc1nc2ccccc2s1 | – | 95.7 µM |
| COC(=O)c1c2c(c[n+]([O-])c1C)C(=O)C=CC2=O | 10.1 µM | 21.7 µM |
| CCCSc1ccc2[nH]c(N3C(=O)/C(=C/c4ccco4)N=C3c3ccccc3)cc2c1 | – | > 50 µM |
| O=S(=O)(c1ccccc1)n1c2ccc(Br)cc2c2nc3ccccc3nc21 | – | > 100 µM |
| CNC(=O)c1ccc(N2CCN(Cc3ccc4nc(C)c(=O)[nH]c4c3F)CC2)c(F)n1 | > 100 µM | > 100 µM |
| Cc1ccc(S(=O)(=O)NC(=O)C2C(=O)CC3(CCCCC3)CC2=O)cc1 | – | 85 µM |
| CC(=O)[O][Ga]([Cl])[O]C(C)=O | > 100 µM | > 100 µM |
| CC(C(=O)c1ccccc1)C(c1ccccc1)N1CCOCC1 (stereo unspecified) | – | > 100 µM |
| COc1cc(NC(N)=NCCC(C)(C)Oc2ccc(C(F)(F)F)cc2)ncc1C#N | 1.46 µM | 2.78 µM |
| C1CCC2(CC1)O[C@@H]1[C@@H](O2)[C@@H](O[C@H]2O[C@@H]3COC4(CCCCC4)O[C@H]3[C@@H]3OC4(CCCCC4)O[C@@H]23)O[C@@H]2COC3(CCCCC3)O[C@@H]12 | – | > 100 µM |
| COC(=O)CCC(=O)NC1=C(NCc2ccccc2)C(=O)c2ccccc2C1=O | – | > 100 µM |
| C[C@H](CCC(=O)NCCS(=O)(=O)O)[C@H]1CC[C@H]2[C@@H]3CC[C@@H]4C[C@H](O)CC[C@]4(C)[C@H]3CC[C@]12C | – | > 100 µM |
| CC(=O)[CH-]C(C)=O.CC(=O)[CH-]C(C)=O.[CH2-]CCC.[CH2-]CCC.[Sn+4] | 1.47 µM | 2.79 µM |
| C=C1C(O)C2C(=C(CCc3ccccc3)C13CC3)C(=O)C(C)(CO)C2O (stereo unspecified) | 28.4 µM | > 100 µM |
| S=C(Nc1ccc(Br)cc1)Nc1ccc(Br)cc1 | > 100 µM | > 100 µM |
| Cc1c(Cl)c2ccccc2n1S(=O)(=O)c1ccccc1 | – | > 100 µM |
| CCOC(=O)C1(C/C=C(/C)Cl)CCCC1=O (stereo unspecified) | – | > 100 µM |
| COc1cccc(-c2nc3sccn3c2-c2ccnc(NCCCNS(=O)(=O)c3cccc(F)c3)c2)c1 | 3.6 µM | > 100 µM |
| CC[N+](CC)=c1sc2c(s1)C(c1ccc(Cl)cc1)Oc1ccc(Cl)cc1-2 (stereo unspecified) | 2.64 µM | 10.1 µM |
| Cc1nc(Nc2ccc(Cl)cc2)sc1C(=O)NNc1ccc([N+](=O)[O-])cc1[N+](=O)[O-] | – | 39.1 µM |

| SMILES | GI50 | TGI |
| --- | --- | --- |
| N#CCc1n[nH]c(Cc2ccccc2)n1 | – | > 100 µM |
| COc1ccc(-c2cc(=O)c3ccc(C)nc3[nH]2)cc1 | – | > 100 µM |
| CC(=O)[C@@]1(C)CC2(CCN(C)CC2)OC1C (stereo partly specified) | – | > 100 µM |
| Oc1ccc(-c2nc(-c3cccnc3)c(-c3ccc(Cl)cc3)[nH]2)cc1O | – | 59.8 µM |
| CC(C)(C)C(=O)c1c(C(F)(F)F)n([O-])c2ccccc2[n+]1=O | 1.94 µM | 5.13 µM |
| c1cc(N(CCn2cccn2)CCn2cccn2)cc(N(CCn2cccn2)CCn2cccn2)c1 | – | > 100 µM |
| O=C1CCC2(CC1CC(Sc1ccccc1)Sc1ccccc1)OCCO2 (stereo unspecified) | – | > 100 µM |
| Nc1ccc(C2=NN(c3ccccc3)C(c3ccc(Cl)cc3)C2)cc1 (stereo unspecified) | 7.96 µM | 22.4 µM |
| CC(C)=CCc1c(OC(=O)c2c(C)cc(O)cc2O)cc(CO)c(CO)c1O | – | 49.2 µM |
| CC(=O)OC(/C=C/c1ccccc1)P1(=O)N(CC(C)(C)C)[C@@H]2CCCC[C@H]2N1CC(C)(C)C (stereo partly specified) | – | 23.4 µM and 24 µM |
| [N-]=[N+]=C1N=CN=C1c1ncn[nH]1 | – | > 100 µM |
| N/C(=N\S(=O)(=O)c1ccc(S(=O)(=O)c2ccccc2)s1)Nc1ccc(Cl)cc1 | – | 52.9 µM |
| COC(=O)c1c(O)ccc2c1c1c(n2Cc2ccccc2Cl)C(=O)c2ccccc2C1=O | – | 30.5 µM |
| [Cl][Hg][Cl] | 16.1 µM | 29.7 µM |
| COC(=O)[C@]1(c2cc3ccccc3n2S(=O)(=O)c2ccccc2)CC2CN(C(C)=O)C1CC2=O (stereo partly specified) | – | 13 µM |
| Cc1[nH]c2c(c1C)S(=O)(=O)c1cc3ccccc3nc1N2 | – | > 100 µM |
| Cc1cnc(NC(=O)Nc2cc(Br)c(C)cc2OC[C@@H]2CNCCO2)cn1 | 0.62 µM and 1.27 µM | > 10 µM and 14 µM |
| COc1cc(/C=C2\C(=O)Nc3cc(C)c(O)cc32)cc(OC)c1OC | 9.62 µM | 29.3 µM |
| CCOC(=O)N1CCN(c2nc(Nc3cc(C)[nH]n3)c3ccccc3n2)CC1 | 12.9 µM | 78.3 µM |
| COc1ccc(C(=O)/C=C/c2ccc(C)cc2)cc1OC | 16.1 µM | 39.4 µM |
| C=C(c1ccc2nc(NC(=O)OC)[nH]c2c1)c1cccs1 | – | > 100 µM |
| COc1ccc2c(c1)C(=O)c1c-2n(CCCN=[N+]=[N-])c(=O)c2cc(OC)c(OC)cc12 | > 100 µM | > 100 µM |
| Cc1ccc(N=N/C(=N\NC(=O)c2ccc(C)cc2)c2ccc(N(CCC#N)CCC#N)cc2C)cc1 | – | > 100 µM |
| CN(C)CCNC(=O)c1cccc2c(NCCN(C)C)c3ccccc3nc12 | – | 29 µM |
| COc1ccc2c(CCN)c(C(=O)O)[nH]c2c1 | – | > 100 µM |

| SMILES | GI50 | TGI |
| --- | --- | --- |
| OCc1ccc(-c2ccc(-c3ccc(CO)o3)[se]2)o1 | > 66.9 µM | > 100 µM |
| O=C(CC(c1ccccc1)c1c(O)c2ccccc2oc1=O)c1ccccc1 (stereo unspecified) | – | > 100 µM |
| Nc1nc(SCc2ccc([N+](=O)[O-])cc2)nc2c1ncn2C1OC(COP(=O)(O)O)C(O)C1O (stereo unspecified) | – | > 100 µM |
| CCOC(=O)c1cc(-c2cc(OC)c(OC)c([N+](=O)[O-])c2)c([N+](=O)[O-])n1C | – | > 10 µM |
| COc1ccc2c(c1)N1CCc3cc(OC)c(OC)cc3C1C2 (stereo unspecified) | – | > 100 µM |
| COC(=O)/C=C\n1c(C)cc(=O)[nH]c1=O | – | > 100 µM |
| CCCN(CCCC(NC(C)=O)C(=O)NCc1ccccc1)C(=O)N(CCCl)N=O (stereo unspecified) | – | 56.2 µM |
| O=C(/C=C/c1ccc(O)cc1)c1ccc2c(c1)OCO2 | – | 99.4 µM |
| Oc1[nH]c2ccccc2c1N=Nc1ccccn1 | – | > 100 µM |
| Cc1ccc(N2Cc3c(ccc4ccccc34)OP2(=O)Oc2ccc(Cl)c(C)c2)cc1 (stereo unspecified) | – | > 100 µM |
| COc1ccc(OC)c(/C(C)=N/NC(N)=S)c1 | – | > 100 µM |
| COc1cc(-c2cc3ncccc3c3nc(N)c4cccnc4c23)cc(OC)c1OC | 0.472 µM | 60.1 µM |
| NC(N)=N/N=C/c1nc2n(c1[N+](=O)[O-])CCS2 | – | > 100 µM |
| CCSc1sc(=Nc2ccc(N=c3sc(C)c(SC)s3)cc2)sc1-c1ccc(C)cc1 | – | > 100 µM |
| Cc1cnc2sn(-c3ccc(Oc4ccccc4)cc3)c(=O)c2c1 | – | > 100 µM |
| O=C(c1ccco1)N1CCCN(C(=O)c2ccco2)C1=S | – | > 100 µM |
| Cc1c(Cl)nc(Nc2nc3ccccc3[nH]2)nc1Cl | – | > 100 µM |
| CC[C@H](O)[C@H](C)C=C1SCCCS1 | – | > 100 µM |
| COc1cccc(-c2cc(=O)c3cc(OC)ccc3[nH]2)c1 | 0.153 µM | > 100 µM |
| CC1(C)N=C(C(N)=O)c2ncn(N)c2N1 | – | > 100 µM |
| O=[N+]([O-])C1CC/C(=N/O)c2nonc21 (stereo unspecified) | – | > 10 µM |
| CC[C@]12C=CCN3CC[C@@]4(c5cc(Br)c(OC)cc5N(C)[C@H]4[C@@](O)(C(=O)NN)[C@@H]1O)[C@@H]32 | – | > 100 µM |
| C=C(COC(C)=O)CC(OC(C)=O)c1ccccc1 (stereo unspecified) | – | > 100 µM |
| COc1ccc2c(CN3CCCCC3CO)cc3cc(OC)c(OC)cc3c2c1 (stereo unspecified) | – | 17.5 µM |
| CCCN1C(=O)CC(C)N(Cc2ccccc2Cl)C1=S (stereo unspecified) | – | > 100 µM |

| SMILES | GI50 | TGI |
| --- | --- | --- |
| Cc1nc(SCC(=O)Nc2nc(-c3ccc(Cl)cc3)cs2)n(Nc2ccccc2)c1C | 4.17 µM | 22.9 µM |
| CCCC(=O)NC1=C(Cl)C(=O)c2ccccc2C1=O | – | 43.1 µM |
| COc1cc2c(c(OC)c1OC)-c1ccc(SC)c(=O)cc1[C@@H](NCc1ccc(C#N)cc1)CC2 | – | > 100 µM |
| COc1ccc2nc3c([N+](=O)[O-])ccc4c3c(c2c1)NCCN4CCO | – | 2.84 µM |
| COc1cc2c(cc1OC)C(C(CO)CO)N(CC(O)CCl)CC2 (stereo unspecified) | – | > 100 µM |
| Cc1ccc(C)c2c1C(O)(C#Cc1ccccc1)c1ccccc1C2(O)C#Cc1ccccc1 (stereo unspecified) | 4.69 µM | > 100 µM |
| COc1cc(C#Cc2ccc(=O)oc2C#Cc2ccccc2)cc(OC)c1OC | 21.3 µM | 45.1 µM |
| COc1ccc(OC)c2c1CC(C(=O)O)(C(=O)O)CC2=O | – | > 100 µM |
| S=C(NC1=NCC(CN2CCN(c3ccccc3)CC2)O1)Nc1ccccc1 (stereo unspecified) | – | > 100 µM |
| N#CC1=C(N)n2c(s/c(=C\c3ccc(Cl)cc3)c2=O)=C(c2nc3ccccc3[nH]2)C1c1ccc(Cl)cc1 (stereo unspecified) | – | 3.57 µM |
| Fc1ccc2[nH]cc(-c3nonc3-c3c[nH]c4ccc(Br)cc34)c2c1 | 2.83 µM | 12.7 µM |
| CCN(CC)CC1CCCCN1CC(=O)N1c2ccccc2NC(=O)CC1C (stereo unspecified) | – | > 100 µM |
| O=S(=O)(O)c1cc(O)c2c(N=Cc3ccccc3O)cc(S(=O)(=O)O)cc2c1 | – | > 100 µM |
| CCc1cc(Cc2cc(Cl)c(NC(=O)C(=O)C3NC(=O)NC3=O)c(CC)c2)cc(Cl)c1NC(=O)C(=O)C1NC(=O)NC1=O (stereo unspecified) | – | > 100 µM |
| CCc1cccc(C)c1NC(=O)c1sc2nc3c(cc2c1N)CCCCC3 | 5.69 µM | > 100 µM |
| COC(=O)N(C(=O)OC)C(C(=O)O)C(C)C (stereo unspecified) | – | > 100 µM |
| O=C(CO[N+](=O)[O-])Nc1ccc(C(=O)/C=C/c2ccc(Cl)cc2)cc1 | 10.3 µM | 22.6 µM |
| CCOC(=O)C1=CNC(C(=O)OCC)C1c1cccn1-c1ccc(Cl)cc1[N+](=O)[O-] (stereo unspecified) | – | > 100 µM |
| O=C1c2ccccc2-c2c1c1c(=O)[nH]c3ccccc3c1n2Cc1ccccc1 | 31.8 µM | > 100 µM |
| Cc1ccc(NC(=O)C2C(=O)N(c3ccc(C)cc3)C(=O)/C2=N\NC(N)=S)cc1 (stereo unspecified) | – | > 100 µM |
| COC(=O)C(Cc1c(C2Nc3ccccc3C2CC(NC(=O)CNC(C)=O)C(=O)OC)[nH]c2ccccc12)NC(=O)CNC(C)=O (stereo unspecified) | – | > 100 µM |
| COc1ccc(-c2cc(=O)c3cc4c(cc3[nH]2)OCO4)cc1OC | – | > 100 µM |
| COc1cc(OC)cc(N(CCNC(C)C)c2ccc3ncc(-c4cnn(C)c4)nc3c2)c1 | 4.62 µM | 17.1 µM |
| Cc1ccc(-c2csc(/N=C3\C(=O)Nc4ccccc43)n2)cc1 | 2.04 µM | 5.69 µM |
